81 compounds from ChEMBL document CHEMBL1201862, “PubChem BioAssay data set” (2004) can be followed below.

Molecules are shown by their SMILES.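 In this assay, cells in 96-well plates receive the compound at five concentrations for 48 hours. Endpoints are linearly interpolated between the surrounding concentrations. GI50 = concentration required for 50% inhibition of growth.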 Calls of active or inactive are those of the source. Rule as the data show it: active = GI50 up to about 1.1 µM and inactive = higher.

In this assay the test system is NCI-H322M. The experiment in a line: DTP human tumour cell line panel, 48 h.
The term GI50 denotes the concentration at which growth is held to half of that of the control. Consider `COc1cc(C=O)ccc1Oc1nnnn1-c1ccccc1`, for which the GI50 is inactive: > 100 µM.
To `NC1(P(=O)(O)O)CCCCC1` belongs inactive: > 100 µM.
As for `Nc1ccc(C(=O)O)cc1.Nc1nc(N)c2nc[nH]c2n1`, the figure is inactive: 17.6 µM; as for `Oc1nc(S)nc2c1CN(CCCN1CCOCC1)CN2`, inactive: > 100 µM; as for `N=C(N)N/N=C/c1c(-c2ccc([N+](=O)[O-])cc2)nc2sc(Cl)cn12`, active: 0.733 µM.
As for `CC(C)(C)C(=O)OC12/C(=N/O)CCCCCC1c1ccccc12` (stereo unspecified), the figure is inactive: 16.6 µM; as for `CCCCCCCC(=O)OCC1OC(OC)C(NC(=O)N(CCCl)N=O)C(O)C1O` (stereo unspecified), inactive: 27.7 µM; as for `CCOC(=O)c1c[nH]c(C(=O)C=[N+]=[N-])c1C1CCN(CC)C1=S` (stereo unspecified), inactive: > 100 µM.
For the compound `Cc1cc(-c2ccc(C(=O)C(Cl)(Cl)Cl)[nH]2)on1`, the GI50 was inactive: 25.9 µM.
In the case of `Cc1cc(C)c2c(=O)n(CN3CCC(O)(c4ccccc4)CC3)sc2n1`, the GI50 was inactive: > 100 µM.
To `ClC1(c2ccccc2)c2ccc(Br)cc2-c2cc(Br)ccc21` belongs inactive: 17.9 µM.
To `O=C1c2ccccc2C(=O)c2sc(Nc3ccc(Cl)cc3)nc21` belongs inactive: 6.32 µM.
As for `N#Cc1c(N2CCCC2)nsc1Nc1ccccc1`, the figure is inactive: > 100 µM.
In the case of `CC(=O)NNc1nc(C)c(C(/C=C/c2ccccc2O)=N/NC(=O)c2ccncc2)s1`, the GI50 is inactive: > 100 µM.
As for `CC(C)(C)OC(=O)NCCC(=O)NC1(c2cc3ccccc3s2)CCCCC1`, the GI50 is inactive: 19.9 µM.
In the case of `O=C1c2ccccc2C(=O)N1CC#CCO`, the GI50 was inactive: > 100 µM.
As for `CC(C)NC(=O)OCc1c(COC(=O)NC(C)C)n(C)c2c1ccc1sccc12`, the figure is inactive: 20 µM; as for `CCOC(=O)c1cc(C2CCN(c3ccccc3)C2=O)c(C(=O)/C=C(/C)N)[nH]1` (stereo unspecified), inactive: 45.8 µM.
Regarding `O=C(c1ccsc1)c1cc2c(s1)C(=O)c1ccsc1C2=O`, the concentration for 50% growth inhibition (GI50) was active: 0.527 µM.
Regarding `COc1ccc(C(=O)C(C(=O)C(=O)Nc2ccc(Cl)c(Cl)c2)c2ccc(OC)cc2)cc1` (stereo unspecified), the GI50 is inactive: > 100 µM.
To `Cc1cccc(C)c1NC(=O)/C(Cc1nc2ccc([N+](=O)[O-])cc2nc1O)=N\NC(N)=O` belongs inactive: 90.8 µM.
To `O=c1[nH]c2cc(Cl)ccc2nc1/C(=N/Nc1ccccc1)C(O)c1ccco1` (stereo unspecified) belongs inactive: > 100 µM.
`COc1cc2cccc(N)c2cc1OC`: the GI50 is inactive: > 100 µM.
To `COC(=O)C1=C(O)C(C(=O)OC)[C@]2(O)[C@H](C(=O)OC)[C@H]1C[C@@H](c1ccc(C(F)(F)F)cc1)[C@H]2C(=O)OC` (stereo partly specified) belongs inactive: 2.84 µM.
With `c1ccc(C2SCC3=Nc4ccccc4CN32)cc1` (stereo unspecified), the GI50 is inactive: 24.3 µM.
As for `CC(Oc1ccc2cc(C(=O)c3ccccc3)c(=O)oc2c1)C(=O)O` (stereo unspecified), the figure is inactive: > 100 µM.
`O=[N+]([O-])c1ccc(NC(=S)N/N=C(\c2ccccc2)c2ccccn2)cc1`: the GI50 is inactive: 1.29 µM.
In the case of `CSC1SCC2C(=O)N(C)C3(CC3C)C(=O)OCC(NC(=O)c3nc4ccccc4cc3O)C(=O)NC(C)C(=O)N(C)C1C(=O)N(C)C1(CC1C)C(=O)OCC(NC(=O)c1nc3ccccc3cc1O)C(=O)NC(C)C(=O)N2C` (stereo unspecified), the 50% growth inhibitory concentration (GI50) was active: < 0.0001 µM.
`c1ccc(CSCCC(SCc2ccccc2)SCc2ccccc2)cc1`: the GI50 was inactive: > 10 µM.
For `CC1=NN(c2cccc(S(=O)(=O)O)c2)C2(C1)SCC(=O)N2c1nc2ccccc2s1` (stereo unspecified), the GI50 is inactive: > 100 µM.
Turning to `CCOC(=O)C#Cc1ccc(C#CC(=O)OCC)cc1`, the GI50 was inactive: 5.09 µM.
As for `CC1c2[nH]c3ccccc3c2CCN1O` (stereo unspecified), the figure is inactive: > 100 µM; as for `CC[N+]1(C)CCC(O)(c2ccc(Cl)cc2)C(C(=O)c2ccc(Cl)cc2)C1` (stereo unspecified), inactive: 23.1 µM; as for `CC(=O)c1c(N=[N+]=[N-])c2cccc3c2n(c1=O)CCC3`, inactive: 24.5 µM.
For `Cc1cc(Br)ccc1/N=N/C1C(=O)ON=C1c1ccccc1` (stereo unspecified), the GI50 is inactive: > 100 µM.
To `COC(=O)c1ccc(Cc2cc(Cc3ccc(C(=O)OC)cc3)cc(Cc3ccc(C(=O)OC)cc3)c2)cc1` belongs inactive: > 25 µM; to `CC(=O)OCC1OC(n2c(=S)n(-c3ccccc3)c(=O)c3cc(Br)ccc32)C(OC(C)=O)C1OC(C)=O` (stereo unspecified), inactive: > 100 µM; to `CC1(C)CNCC(C)(OCc2ccccc2)C(=O)NC(C)(C)CNCC(C)(OCc2ccccc2)C(=O)N1` (stereo unspecified), inactive: > 10 µM.
As for `COC(=O)C(=O)C(C(=O)C(=O)Nc1nc2ccc(C)cc2s1)c1nc2ccc([N+](=O)[O-])cc2nc1O` (stereo unspecified), the figure is inactive: > 100 µM; as for `O=Cc1ccc(-c2nccc3c2[nH]c2ccccc23)o1`, inactive: > 91.2 µM.
As for `Nc1nc(N)c2nc(-c3ccco3)cnc2n1`, the figure is inactive: 37.9 µM.
`O=C(/C=C/c1ccccc1)Oc1cccc(O)c1`: the GI50 was inactive: > 100 µM.
To `O=C(/C=C/c1ccccc1O)c1cccc2ccccc12` belongs inactive: > 61.7 µM; to `CC(NC(=O)N(C)C)NC(=O)N(C)C`, inactive: > 10 µM.
To `CC(=O)O[C@H]1C(=O)[C@@]2(C)[C@H]([C@H](OC(=O)c3ccco3)[C@]3(O)C[C@H](OC(=O)[C@H](O)[C@@H](NC(=O)c4ccccc4)c4ccccc4)C(C)=C1C3(C)C)[C@]1(OC(C)=O)CO[C@@H]1C[C@@H]2O` belongs active: 0.541 µM; to `Cc1cccc(NC(=O)/C=C/c2ccccc2)c1C`, inactive: > 100 µM; to `COc1ccccc1N1C(=O)/C(=C\c2cccc(Oc3ccccc3)c2)SC1c1ccccc1` (stereo unspecified), inactive: 52.5 µM.
Turning to `CCOC(=O)C(=O)Nc1cc(Cl)ccc1Cl`, the GI50 was inactive: > 100 µM.
To `CC1(C)OCC(C2OC3OC(C)(C)OC3C2c2ccccc2)O1` (stereo unspecified) belongs inactive: > 100 µM; to `Cc1ccc(NC(=S)C#N)cc1Cl`, inactive: 38 µM; to `Cc1ccc(-c2cc(=O)c(=O)[nH][nH]2)cc1`, inactive: > 100 µM.
For the compound `Cn1c2ccccc2c2c3c(c4c5ccccc5n(C)c4c21)C(=O)c1ccccc1C3=O`, the GI50 is inactive: 56.1 µM.
As for `CCOC(=O)Cc1cc(OC)c(OC)cc1/C(Cl)=C(\C=O)c1ccc(OC)c(OC)c1`, the figure is inactive: 13.7 µM; as for `Nc1nc(Cl)cc(NCCCNc2cc(Cl)nc(N)n2)n1`, inactive: > 100 µM; as for `Cc1ccc2c(n1)C(=O)C=CC2=O`, inactive: 16 µM.
Regarding `O=C(NNCC(F)(F)F)c1ccncc1`, the GI50 is inactive: > 100 µM.
Regarding `Cc1ccccc1NC(=O)C(=O)CC(=O)c1ccc([N+](=O)[O-])cc1`, the GI50 was inactive: > 100 µM.
As for `C=CCCC1(O)C(O)C(CO)O[C@H](O[C@@]2(CO)OC(CO)C(O)C2O)C1O` (stereo partly specified), the figure is inactive: > 100 µM; as for `CC(=O)c1c(-c2ccco2)c(C#N)c(=S)n(C2OC(CO)C(O)C(O)C2O)c1-c1ccccc1` (stereo unspecified), inactive: 96.6 µM; as for `Cc1nc2ccccc2n1Cc1ccc(NC(=S)Nc2ccccc2)cc1`, inactive: > 100 µM.
To `Cc1c(/N=N/c2ccc([N+](=O)[O-])cc2)nc2scc(-c3ccccc3)n12` belongs inactive: > 100 µM; to `O=[N+]([O-])c1ccc(C(O)(C#CCN2CCCC2)c2ccccc2)cc1` (stereo unspecified), inactive: 48.8 µM.
As for `C[C@H]1CN[C@@H]2[C@@H](C)[C@H]3[C@@H](C[C@H]4[C@@H]5CC[C@H]6C[C@@H](N)CC[C@]6(C)[C@H]5CC[C@]34C)O[C@@]2(O)C1`, the GI50 was inactive: 2.51 µM.
As for `N#CC(=N)c1ncn(CCO)c1NC(=O)C(F)(F)F`, the figure is inactive: > 100 µM; as for `Cc1cccc(-c2nc3c(C(=O)NCCN(C)C)cccc3[nH]2)c1`, active: 0.984 µM.
In the case of `O=C(CC/C(CC(=O)c1ccc(Cl)cc1)=N/O)Nc1ccc(Cl)c(Cl)c1`, the GI50 was inactive: > 100 µM.
`C/C(=N\NC(=S)NC(C)(C)C)c1nc2cccnc2[nH]1`: the GI50 is inactive: 3.33 µM.
For `NS(=O)(=O)c1cc2c(cc1Cl)NC(/C(=N/NC(=O)c1ccncc1)C1C(=O)NC(=O)NC1=O)=NS2(=O)=O`, the GI50 was inactive: > 100 µM.
In the case of `C=CC(C)(C)n1cc(C2=C(O)C(=O)C(c3cn(C(C)(C)C=C)c4ccccc34)=C(OC(C)=O)C2=O)c2ccccc21`, the 50% growth inhibitory concentration (GI50) is active: 1.1 µM.
To `CCn1c(C)nc([N+](=O)[O-])c1Sc1ncc[nH]1` belongs inactive: > 100 µM.
For the compound `COc1ccc2c3c(c(C(=O)O)oc13)C(CCC(=O)O)CC2` (stereo unspecified), the GI50 is inactive: > 100 µM.
On to `COC(=O)c1c(O)ccc2c1c1c(n2Cc2ccc(OC)cc2)C(=O)c2ccccc2C1`, for which the GI50 is inactive: > 100 µM.
As for `COC(=O)c1c2c(c3[nH]c4ccccc4c3c1C(=O)OC)C(=O)C1=C(C2=O)C2(Cl)C(Cl)C(Cl)C1(Cl)C2(Cl)Cl` (stereo unspecified), the figure is inactive: 3.67 µM; as for `CC(C)C(C/C=C1/CC(CO)(COC(=O)C2CCCCC2)OC1=O)C(C)C` (stereo unspecified), inactive: 17.3 µM; as for `C=C1C(=O)OC2C3C(=C)[C@@H](OC(C)=O)CC3C(C)=CC(OC(=O)C(C)(OC(C)=O)C(C)OC(C)=O)[C@@H]12` (stereo partly specified), inactive: 69.5 µM.
As for `O=C(OCc1ccccc1[N+](=O)[O-])N1c2ccccc2[C@@]23O[C@]24CCC[C@H]3C#C/C=C\C#C[C@H]14`, the figure is inactive: > 100 µM; as for `Brc1ccc2c(-c3csc(-c4c[nH]c5cc(Br)ccc45)n3)c[nH]c2c1`, inactive: 27.2 µM.
In the case of `O=C1/C(=C/c2ccccc2)CNC/C1=C\c1ccccc1`, the GI50 is inactive: 3.36 µM.
To `COc1cc(C=O)c(-c2cc3c(cc2C=O)OCO3)c(OC)c1OC` belongs inactive: 83.4 µM; to `CC(=O)N/C=C/c1cc(O)ccc1O`, inactive: > 90.2 µM.
As for `COc1cc2c(cc1C)NC(=O)/C2=C/c1c(Cl)n(C)c2ccccc12`, the figure is inactive: 12.1 µM.
